Reference: patent US20210380678A1 (published 2021)

Legend:
Assay in all cases: BLI steady-state
[1] = target: T1, human RNF43 extracellular domain (hRNF43 ECD) (UniProt Q68DV7 44-197, biotinylated (His-Avi tag))
T1 chain: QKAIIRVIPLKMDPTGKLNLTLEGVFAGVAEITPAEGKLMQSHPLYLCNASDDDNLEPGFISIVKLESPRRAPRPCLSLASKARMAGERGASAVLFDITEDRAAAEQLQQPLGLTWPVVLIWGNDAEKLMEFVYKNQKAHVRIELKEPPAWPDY

[2] = target: T2, human ZNRF3 extracellular domain (hZNRF3 ECD) (UniProt Q9ULT6 56-219, biotinylated (His-Avi tag))
T2 chain: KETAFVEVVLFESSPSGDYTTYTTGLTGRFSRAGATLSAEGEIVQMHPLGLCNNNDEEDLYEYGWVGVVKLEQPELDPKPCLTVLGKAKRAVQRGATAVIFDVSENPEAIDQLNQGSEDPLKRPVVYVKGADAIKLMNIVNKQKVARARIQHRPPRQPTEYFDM

[3] = target: T3, Fc portion of human IgG1-fused LGR5-ECD (R&D systems) (UniProt O75473 22-557)
T3 chain: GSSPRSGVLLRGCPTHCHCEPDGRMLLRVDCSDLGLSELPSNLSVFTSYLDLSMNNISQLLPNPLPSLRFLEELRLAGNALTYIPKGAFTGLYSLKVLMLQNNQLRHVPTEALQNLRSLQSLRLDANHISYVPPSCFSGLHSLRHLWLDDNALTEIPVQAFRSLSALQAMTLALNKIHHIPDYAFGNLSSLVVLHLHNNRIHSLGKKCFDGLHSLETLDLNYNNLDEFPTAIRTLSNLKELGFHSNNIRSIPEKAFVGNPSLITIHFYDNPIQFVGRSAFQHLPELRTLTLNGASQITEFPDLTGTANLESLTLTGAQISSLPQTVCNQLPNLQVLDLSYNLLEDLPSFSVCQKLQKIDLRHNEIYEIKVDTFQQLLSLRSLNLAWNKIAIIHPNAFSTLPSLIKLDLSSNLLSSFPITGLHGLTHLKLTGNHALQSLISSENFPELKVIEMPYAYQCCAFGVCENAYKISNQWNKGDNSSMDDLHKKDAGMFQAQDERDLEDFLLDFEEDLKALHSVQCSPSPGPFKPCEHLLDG

Kd [1]: 22 nM
Kd [2]: 51 nM
Kd [3]: 6.5 nM
B1: αASGR1-RSPO2-WT (anti-ASGR1, RSPO2 wild type) (other)
chain: [letters of about 100 residues omitted]DFSSRRWYLEYWGQGTLVTVSSGGGGSGGGGSGGGGSELTQDPAVSVALGQTVRITCQGDSLRSYYASWYQQKPGQAPVLVIYGKNNRPSGIPDRFSGSSSGNTASLTITGAQAEDEADYYCNSLERIGYLSYVFGGGTKLTVLGSGGSNPICKGCLSCSKDNGCSRCQQKLFFFLRREGMRQYGECLHSCPSGYYGHRAPDMNRCARCRIENCDSCFSKDFCTKCKVGFYLHRGRCFDECPDGFAPLEETMECVEGGDYKDDDDKGSHHHHHHHH
